The results in this text go back to the RNAGym collection of RNA variant scans (doi:10.7554/elife.90254).

Read counts are not given, so values of variants with three or more changes are uncertain.

Sequences and labels used below:
B1: LINE1-full (parent)
chain: UACGUAGGUGGUUUUCCCCUGAUAGUGCUAAGGGGGCCUGGAAGUUUGGACUGGGCAGAGCUCAACACAGCGUGGCAAAGUGGCUGUGGCUAGACUGCCUCUCUGGAUUCCUCGUCACUCAGCAGGGCAUCUCUGAGAGAAAUGCC

The data set covers variants of B1. In words: self-cleavage, relative activity (ratio to wild type); higher = more cleavage; in vitro, sequencing; the parent is a self-cleaving ribozyme.
Regarding U46C U73C C145A, the self-cleavage came out at 2.49. Under C61A A79U A92U C128U A138U stands 0.06. Regarding G27A G33A A42G U96A, the self-cleavage is 0.03. Under G7U A67G U85A stands 0.11; under G41U C123U U132A, 1.2; under U47A U100C A129G, 0.49. Under U20C U39A A42G stands 1.28. The figure for A69U A79C A136G is 0.

For U52C G86A U112C, the self-cleavage was found to be 0.05.

In the case of U20C U39A U46A U85C A92U A140G, the self-cleavage turned out to be 0.08.

On to C51U A78G A94G A138G, for which the self-cleavage was found to be 0.3. Take U91C U115A U132C: the self-cleavage stood at 1.28. Under U26G C84U G88A stands 0. Under A42G A43U C99G C118U A124U stands 0.39; under U15C U115C A121C, 2.04; under U46A A69G U102C U132C, 0.27.

For the variant U45C U52C U87A, the self-cleavage turned out to be 0.23. The figure for C28U A67G U91C U130C is 0; for U14C U132C A141G it is 1.77. Under C16U U112C U115A stands 1.89; under G27U A50G U108C, 1.56; under A59G U62A A77U C111U, 0.04. The figure for U108C U115C G126A is 2.44; for U1C G44A G75A A121U it is 0.57. As for U100C U108G C116U U119G, the self-cleavage was found to be 2.51.

In the case of A24G U47A U87G, the self-cleavage was determined as 0.14. Under U12C U13C U85A U132C A142G stands 0.48; under G36C A42G A59U, 0.84. Under U9C U15A U26C A140G stands 0.84; under U15C G72A U108C, 1.98; under C51U U108C C123U, 1.8. Under U46C U96A C98A U115A stands 0.04; under U45A A78G G135A, 1.13. For U20C U29C G34C, the self-cleavage was determined as 1.72. The figure for U39A A50U U132C A140G is 1.42. The figure for A31C U100A U132C A141G is 0.52. The figure for U23C A94C A107U U109C A142G is 0; for A2C U12A U14A it is 1.22; for A42C A43G U87A it is 0.14. On to G4A U13C A138G, for which the self-cleavage was found to be 0.78. The figure for U73A U109C C146U is 0.89. On to G4U U5C G55A U119C, for which the self-cleavage is 0.42.

As to G27U G33A U109A G127U, the self-cleavage came out at 0.8. Under U12C C71U C120U stands 0.51; under U45C U62C U119A U130C U132C, 0. The figure for A69G G74A U81C A121C is 0.51; for G53A A92U A124G it is 0.28.

With U9C A42U C98U U100G U108C C133U, the self-cleavage was determined as 0.71.

Consider C18U A92U U143C, for which the self-cleavage was 0.72. Under U62A A77G U104C stands 0.06.

For the variant G25A U29C U85C, the self-cleavage is 0.14. The figure for U26A A57G A124G is 0.07. The figure for G34A U45A U134C U143A is 1.47; for U26A U85C U96A U109A it is 0.15.

As for U14G U15C A57G U96A, the self-cleavage was 0. Under U9C U12C U45C A78U C131U stands 1.71. For A22G A50C U62A, the self-cleavage was 0.03. Turning to C37G U81C U100C U109C, the self-cleavage worked out at 0.54. The figure for U85A A107U U115C is 0.13. Under A6G A22C A31U A65U stands 0.15; under U47A A79G U100C U119A A138U, 1.17; under U1C U15C A42G, 2.83. Under U52A A78G U115C stands 0.93; under U14C C63U A121G, 0.4; under U29C U52A U115C, 2.47. For the variant A22G C68A A121U, the self-cleavage is 0.08.

On to U13C A141G U143A, for which the self-cleavage came to 0.93. The figure for U13C U14C U109C is 0.61; for C120U U132A A136G it is 0.48; for U62C U112A A117G it is 0. Under G10U A79G A142G stands 1.11. The figure for U9A U46G U47C U52C A77U is 1.53; for A67U A92G C95A A124G it is 0.06; for U20A A43C U102C A141U it is 1.2. As for U12C U20A U102A, the self-cleavage was determined as 1.17. Under U9C A30U C120U A138G stands 1.18; under A69U C71U U73A, 0.07; under A59G U130A A136G, 0.26. Under U5C U12C U73A stands 1.31; under A79G U108C A142G, 2.4; under A6G U47C U73A, 2.22.

Consider A2G U15C G106U, for which the self-cleavage stood at 1.16. The figure for G33U U47C A94G U104C is 1.1. The figure for A6G G54A A57U U81C A129G is 0.33; for U39A U81A C120U it is 1.29; for A2G U14C G54A A59G it is 0.43. Under U12G U26C U73C A121G stands 0. For A64G U73C A92U G122A A129G, the self-cleavage came to 0.31. The figure for U46C A57G A140G is 0.64. Under G58U U85C U109C stands 0.03; under U46C A107G U134C, 0. In the case of A2G A42G U62G A140G, the self-cleavage came to 0. On to G88A C118U U130C, for which the self-cleavage was 0.06. The figure for U9C C51U G72A is 0.87; for U29A A69G A94U it is 0.26; for U26A A57U A67G U108C it is 0.33. As for G8A U20A A22G A43G U45A C103U, the self-cleavage came out at 0.99. The figure for U1C U9A A138G is 1.5. On to A94U A129G A138G, for which the self-cleavage worked out at 0.49.

Turning to U26C A77U U85A, the self-cleavage is 0.04. The figure for U14A U20C A69G is 0.

For A24G U115C A138G, the self-cleavage stood at 1.72.

Turning to U13C G40C A136G, the self-cleavage is 1.24. The figure for G53A G55A A59G U81C is 0.05; for G35U U46A A69G U132C it is 0.34. The figure for U26C C99U U100C is 0.82; for U23C A121G A142G it is 1.34.

As for U13C A42U A140G, the self-cleavage stood at 0.87.

Regarding U29C U85A A94G, the self-cleavage turned out to be 0.41.

On to U9G G53A A129U U134A, for which the self-cleavage amounted to 0.42. Under U5C U104C U115C A117U U132C U143C stands 0; under U15C U26C C66U, 0.09. Under U73A U85C U104G stands 0; under U96A A121C U143A, 0.06; under A50G A77U U115A, 0.95. The figure for A67C G93C A140G is 0. Regarding U12C U134C A138G, the self-cleavage is 0. The figure for U46C G54A U91C is 0.09; for A42G G88A U130C A138G it is 0.05. The figure for U87C A121U A140G is 0.22; for U5C G44A A79G G93U it is 0.1.

For the variant A30G A79G A121G A136G, the self-cleavage was found to be 1.15. In the case of A2G U14C U81A A94G C103A, the self-cleavage was 0.56. With U1C A6U G70A G88A U132C, the self-cleavage is 0.06. The figure for U45C A69G A79G is 0.

U9C U13C U81C U143A: the self-cleavage came to 2.9. The figure for G8U A30G G35U is 1.02; for G21U G34A U109A it is 1.01; for C37G A59G A79U it is 0.45. On to U29C A59G U73A U112C U143C, for which the self-cleavage was 0. Under U9C A31G G97A stands 0.42. U12A A94U U115C U130C: the self-cleavage turned out to be 0.27. On to A69U U102C A141G, for which the self-cleavage stood at 0.04. The figure for U14C U47C U62A is 0.17; for A24G A92G A124U A141G it is 0.19.

As for A6G U62C G80A U112A A138G, the self-cleavage was determined as 0.17. The figure for A24G G60C A92U U132A is 0.12; for G34A U102C U119A U143C it is 1.39; for A77G U132C A140G it is 2.79.

Regarding U20C A31G U73G, the self-cleavage worked out at 1.06.

Regarding U20C C28G A69G, the self-cleavage was found to be 0.22. For the variant A30G A138G A142G, the self-cleavage amounted to 1.41.

With A2G G34A U47A A50G G80A, the self-cleavage was 1.36. Under A78G U85A U132C stands 0.05; under U20C A42G G72A A138G, 1.66. In the case of U5C U23C C68U U102C, the self-cleavage came to 0.31.

As to U14C U23C A77G U87C C111A C120A A142G, the self-cleavage is 0.27. Under U26C C28U A77G G83A U112A A121C A138U stands 0.65; under U26A U73C U85A, 0.18. The figure for U29C A43G U112C is 1.67; for G44A U62A U91C A138G it is 0.02; for U14C A43G A78U A124G it is 1.22. Under A59G C76U A141G stands 0.18; under C19G U46C U81C, 0; under G10A A65G A94G, 0.51.

As to A67U A69C U87C, the self-cleavage was 0. Under U12G A22G A65U A138G stands 0; under A2G G58U A69C A79U U115A A141G, 0.23; under U1C A6U U62C C128U, 0.2. The figure for U26C A65G A92U is 0.2; for G58A U73A G83A it is 0.02. The figure for C71A U104C A121G is 0.77; for A6C A107U U130C G137A it is 1.82; for U13C A64U A65G it is 0.16. On to U29C A69U A129U U134A A140G, for which the self-cleavage was 0.1. On to U12C A78G G89U, for which the self-cleavage was 0.07. On to A67U U104C G125U, for which the self-cleavage came out at 0.09.
